In PMC12136788:
Some of the results follow.

B1: chr4:128450444:128450445:-_ENSMUSG00000028799_ENSMUST00000106072|mus_mus|FALSE|FALSE (ssRNA)
RNA: GGGAGUUCUACAGUCCGACGAUCAGGCUGUUAACAGUAUUGGAACAGCAUAUUUACAGGGUAGUAACAUGCGGACAAAAGCUACAAUACGGAGUAUCAGACGACGCAAGUCAAACAAAGGGGUGGGGGUGGGGGGCUGAGACCCAACAGAGGAUUGAGCAUCA
B2: 122453384_122453504_3621_CDS_ENSMUSG00000034602_ENSMUST00000073792|mouse|control|control (ssRNA)
RNA: GGGAGUUCUACAGUCCGACGAUCCAGGGUCUGCCCUGCGCUCUUCCUCACGGCAGGGCGGGGGUCCACACAAAGCUCCCCCAGCUUGGCAUAGAGGCAGAGCCACAAGCAGUCGAACGGUGGCGCGGGGUGGAACGGCCGGUUCAACAGAGGAUUGAGCAUCA
B3: chr5:32761720:32761721:+_ENSMUSG00000014956_ENSMUST00000015100|mus_mus|FALSE|FALSE (ssRNA)
RNA: GGGAGUUCUACAGUCCGACGAUCAGGCUGUCCACGUUCAGCUCCCCGUCCGCCAUCUUGUCGGCACCAGACUCUCCUCCCUAAAGCGUUAACAGGGCUUCUCGGCGGCGGCGGCGGCUCGGCGUUCUCACCUACGAGUCACGCCAACAGAGGAUUGAGCAUCA
B4: chr3:176740097:176740098:-_ENSG00000177565_ENST00000430069|hu_mus|hu_hu_hu_mus_True|8_38 (ssRNA)
RNA: GGGAGUUCUACAGUCCGACGAUCUGUUUUGUAUACCACAAAAGGAGGCACUUUCAGUAUCUGCAAAAGGUGUUUAGUCCUAAAACAUACUCACCUAGAGAAUAAUUCAGGAAAACAAUCUGUUACACUAGUAUCUAUACUCCACAACAGAGGAUUGAGCAUCA
B5: chr2:86849987:86849988:-_ENSG00000239305_ENST00000237455|hu_hu|FALSE|FALSE (ssRNA)
RNA: GGGAGUUCUACAGUCCGACGAUCCACAAUGGCCUCAAAAAACCUGGCCAGGACGAACAGGACCAGGAAAUAGAGGAGCAAGAAAAAAAGCUUCAGCCACAUCUUCCCUGGAGUUUCCUCUCUUUCCAGAGAGCUCGGAAUACGCAACAGAGGAUUGAGCAUCA
B6: chr1:174017691:174017692:+_ENSMUSG00000026553_ENSMUST00000135192|mus_hu|FALSE|FALSE (ssRNA)
RNA: GGGAGUUCUACAGUCCGACGAUCAACUGGAUGACCCCAUUAUGUAAACUAGUCAGGAUCCAAGGUCUUUUGGGGUGAAAGCUGAGCCCUUUGACCCGCGCGCUCUUGGUCUCGAAUUUGGUUAACAUCUCUCAGGUCUCCGACCAACAGAGGAUUGAGCAUCA
B7: chr3:134197472:134197473:-_ENSG00000129055_ENST00000354910|hu_hu|motif|central (ssRNA)
RNA: GGGAGUUCUACAGUCCGACGAUCAGGAGCCAAGCGUCAGUUUCCAAUGGGGGGAACAUUCUCAUGGAGGUACUGUAAGGCGGAGUCUGUCCACUUCAUUUCUUGUUCUUUGACAGAUUCUGUGGUGCCACCAUUGUCUUGUUCCAACAGAGGAUUGAGCAUCA
B8: chr8:74527950:74527951:-_ENSG00000040341_ENST00000355780|hu_mus|FALSE|FALSE (ssRNA)
RNA: GGGAGUUCUACAGUCCGACGAUCUUCUUUAAUAACCUCAAAACUGACAGGCAUAUUUCUCUUCAGCGCAAUCUCAAACACUAAGCUUAUUUCAGAUUUAUUUGCAUCUUUAUCGUCAUCCAUUUCUUUUCCUGAUUCACCAUUCAACAGAGGAUUGAGCAUCA
B9: chr15:96521860:96521861:-_ENSMUSG00000022462_ENSMUST00000023099|mus_hu|FALSE|FALSE (ssRNA)
RNA: GGGAGUUCUACAGUCCGACGAUCGAAAUCUUUUGAUGCACACAACAAGUGAGUUACAGAACUCCGGAUUGGGAAAAUAACUACUGGUACUGUCAGGGUCACAGCCAUUAACACAGCCAGACGGACAAUGAGAAGAAGAAUAUCCAACAGAGGAUUGAGCAUCA
B10: chr1:163115795:163115796:-_ENSG00000143248_ENST00000313961|hu_hu|motif|central (ssRNA)
RNA: GGGAGUUCUACAGUCCGACGAUCGAGUUAAUAUCCUCAUCUCGAUUACCCUCAUACAUGGCUUAGUUUGAUUCUGUUACGGAAUUCUGUGAAUCAUUAUUUAAUCAAAUCUACUAAAGAUUAGAAAAAAUUCUAGCAAGACUUCAACAGAGGAUUGAGCAUCA
B11: chr12:39763582:39763583:-_ENSG00000139116_ENST00000544797|hu_mus|hu_hu_hu_mus_False|28_78 (ssRNA)
RNA: GGGAGUUCUACAGUCCGACGAUCCUCUAGGAACUGGGCAUUCACUUUGAAUUCAGGAGCAGGAAGCCCGUUUUUAAUCGCUGAGGUCUUUUUCUCAUCAAUACUCUUAAAAAGGUGUCUAACAGCACGAGAGAUGAUGCCCUGCAACAGAGGAUUGAGCAUCA
B12: chr2:24917620:24917621:+_ENSMUSG00000006476_ENSMUST00000102931|mus_hu|FALSE|FALSE (ssRNA)
RNA: GGGAGUUCUACAGUCCGACGAUCCAAGAAAUGCUGCUUCCCUUUGAAUUGUUUCGGGGGUGUAGAAAUUGCACUUAUUUCUAUGAACCCCAUGGAGGGAUGCCCACAGCUGAGCCUCCAGGCGAGGCAUGGCAGGUCAGUGCCCAACAGAGGAUUGAGCAUCA
B13: chr11:77336104:77336105:-_ENSG00000074201_ENST00000525064|hu_mus|hu_hu_hu_mus_False|88_108 (ssRNA)
RNA: GGGAGUUCUACAGUCCGACGAUCCUCGCACAUUGCAGUGAACAUCGCCUCCAACGCUGACUUAUCACUGGGCACAAAUCGAAAUUCAGAAAUGGGUUCAACAUCAUCAUUGUCUUCCUCAUCUUCAUCAGAGAGAGGUUCUUUCAACAGAGGAUUGAGCAUCA
B14: 21681212_21699163_576_CDS_ENSG00000092199_ENST00000553300|human|control|control (ssRNA)
RNA: GGGAGUUCUACAGUCCGACGAUCCGAGGGCACUACAGCCCGAGCAAUAGGAGGAGGAGGAGGUACACGUGCUGGGUAACUGUACAUCCUAUCAUAAUAGUCCCGUUGAAAGUCAUAGUCCAAGUCAAAAGAGGAGCCGUACAUCAACAGAGGAUUGAGCAUCA
B15: 41342749_41343464_1019_CDS_ENSG00000188554_ENST00000341165|human|control|control (ssRNA)
RNA: GGGAGUUCUACAGUCCGACGAUCUUUACGUUGUUUCUUCUCAGCUCGCAACCUUUGCUUUUCUGCUUUAAGAAAGUUCUUAUCAACCUGUUUCUGGAGCCUGACUUGUUCCAGAGCAGCAGGAAGACGAGGAGUAGAGUACUUCAACAGAGGAUUGAGCAUCA
B16: chr4:57314706:57314707:+_ENSG00000128050_ENST00000264221|hu_mus|hu_hu_hu_mus_True|48_108 (ssRNA)
RNA: GGGAGUUCUACAGUCCGACGAUCCAGUAUUUCAAAUAUAGCUUGUGUGGCAUGACUCAUGAUGUCCACUUCAGUCUGCCCUAUAACAAGUCCAGCAAAACAGAAUUUUGCAGCAAUGAGUUGCUCCUCAGACCACUGUGGAUCCAACAGAGGAUUGAGCAUCA
B17: chr9:100410314:100410315:+_ENSG00000136937_ENST00000375147|hu_mus|motif|central (ssRNA)
RNA: GGGAGUUCUACAGUCCGACGAUCGUGCCUCUCCUGCCACCGGUCUUUUUUCAAUUUCUGAAUCUGGGCCCACAGGCAAUCGGAAUACUCUUCCUGUGGAUGUGGUUUGUCGGCAGUCCAGACUUGUAACAUGGGCACGUGAGUCAACAGAGGAUUGAGCAUCA
B18: chr9:88289291:88289292:-_ENSMUSG00000032422_ENSMUST00000140439|mus_mus|motif|central (ssRNA)
RNA: GGGAGUUCUACAGUCCGACGAUCUCCUUCUUCUCUUUCCUUUCAGAGGAGGGAUCUUCAAAAAAGUCUACAUACGGAAUGCGGAUUUUCCAGGCAGCAAGGUUUCGAGGAGUGUUAGGUGUGCUCACAGCUUCUACUGGAGAGCAACAGAGGAUUGAGCAUCA
B19: 107592600_107594026_3344_CDS_ENSG00000091136_ENST00000393561|human|control|control (ssRNA)
RNA: GGGAGUUCUACAGUCCGACGAUCUUUGUCGCACUGGCAGUCAGAGCCGUUACAGUGCUCUUGCACGGUGCCCAGGUAAUUACAGACACACUUUCGACAGUCCUGCUGGAGGGCAUCACCAUAGUAUCCAAACCGGCAGAACUGCAACAGAGGAUUGAGCAUCA
B20: chr1:150204246:150204247:-_ENSG00000143401_ENST00000314136|hu_mus|FALSE|FALSE (ssRNA)
RNA: GGGAGUUCUACAGUCCGACGAUCAAAGGUGUCAUUCAGGCCUUCGAUUUCCCCAUUGACACACAAGCAAUUAUCGAGGACUAACUCUGUCACCUCCUCCGGGGCUCUGUUCUUCAACUCCAUGUUAAUCUUCUUCUUCAUCUCCAACAGAGGAUUGAGCAUCA
B21: chr4:99997899:99997900:-_ENSG00000197894_ENST00000296412|hu_hu|FALSE|FALSE (ssRNA)
RNA: GGGAGUUCUACAGUCCGACGAUCAGGCUCCAACUUGGCAGUGUUCACAGCAGCACCAUAACCGGUUGAAAUGCCACAACCUAGAAGGCAGACUUUAUCCAAAGGUGCUAAAGGAUCUAUUUUAGCAACAGAGAUAUCAGCCACCAACAGAGGAUUGAGCAUCA
B22: chr16:57506169:57506170:-_ENSG00000125170_ENST00000340099|hu_hu|FALSE|FALSE (ssRNA)
RNA: GGGAGUUCUACAGUCCGACGAUCGCCACAACUCAAAUAGUGGUUAUUUACAAGAAGGUCUGUUCCCACAAAUCAGGACCCUAAAGUAUUAAAAAACAAAACCCAAAAAACAACAAAAAACCCCACACAACCAAAAGUUUGACGCAACAGAGGAUUGAGCAUCA

What follows are binders tested against T1, UNK ZnF1-3 (human, UniProt Q9C0B0 31-174) (assay: nsRBNS (natural sequence RNA bind-n-seq); RBNS binding buffer (assumed for nsRBNS): 25 mM Tris pH 7.5, 150 mM KCl, 3 mM MgCl2, 0.01% Triton X-100, 500 ug/ml BSA, 20 U/ml SUPERase-In, 4 C; UNK is unkempt and MSI1 is Musashi-1; names of the RNAs are library labels; protein concentration not given here; high values mean tight binding).
T1 sequence: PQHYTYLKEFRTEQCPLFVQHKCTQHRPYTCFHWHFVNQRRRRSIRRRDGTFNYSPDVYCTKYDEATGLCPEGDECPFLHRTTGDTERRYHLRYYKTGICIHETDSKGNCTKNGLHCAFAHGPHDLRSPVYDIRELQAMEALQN
Binder B1 has a binding signal of 1.64 enrichment R. Binder B2 has a binding signal of 0.599 enrichment R. For B3, the binding signal was 0.754 enrichment R. B4 was tested, and the binding signal was 0.662 enrichment R. With B5 the binding signal was 1.36 enrichment R. B6 showed a binding signal of 1.03 enrichment R. For B7, the binding signal was 0.404 enrichment R. B8 showed a binding signal of 0.806 enrichment R. In the case of B9, the binding signal is reported as 1.83 enrichment R. B10 gave a binding signal of 0.798 enrichment R. Binder B11 has a binding signal of 1.5 enrichment R. B12 was tested, and the binding signal was 0.713 enrichment R. For B13, the binding signal was 1.07 enrichment R. With B14 the binding signal was 2.03 enrichment R. In the case of B15, the binding signal is reported as 0.48 enrichment R. For B16, the binding signal was 0.904 enrichment R. B17 gave a binding signal of 0.644 enrichment R. For B18, the binding signal was 1.19 enrichment R. For B19, the binding signal was 0.561 enrichment R. In the case of B20, the binding signal is reported as 0.657 enrichment R. B21 showed a binding signal of 1.44 enrichment R. B22 gave a binding signal of 2.51 enrichment R.
